In the supplement of paper PMC7826260:
Some of the results follow. The data describe in vitro nicking of single-stranded DNA by Rep domains for 1 h at 37 °C with 3 µM enzyme; only the middle of the 90-letter strands is printed. Values are log2 of uncut reads against the no-enzyme pool; the lower, the more was cut; hits are not called. The scaling is to total reads; values above 0 arise when much of the pool is cut.

What was measured:
Test in all cases: uncleaved DNA left, log2 of reads against the no-enzyme library (log2 ratio); higher = less cleavage (more negative = more Rep cleavage of the k-mer); sequences stand for … in CTCGTCCG…ACCGGAGA
[1] = test system: T1, Rep nickase domain of Muscovy duck circovirus
T1 sequence (residues 1-111, tag not shown): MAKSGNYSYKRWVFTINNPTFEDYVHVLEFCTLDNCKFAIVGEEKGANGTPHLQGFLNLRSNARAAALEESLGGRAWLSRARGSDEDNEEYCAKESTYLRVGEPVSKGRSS
Procedure: (§1)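 A pool of 90-nt single-stranded DNAs with seven random bases just before the constant AC of the nick site (name = the seven bases) was cut by 3 µM recombinant His6-SUMO-tagged Rep nickase domain (300 nM DNA, 50 mM HEPES pH 8.0, 50 mM NaCl, 1 mM MnCl2, 1 h, 37 °C, three replicates). Uncut DNA was amplified and sequenced.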

[2] = test system: T2, Rep nickase domain of banana bunchy top virus
T2 sequence (residues 1-94, tag not shown): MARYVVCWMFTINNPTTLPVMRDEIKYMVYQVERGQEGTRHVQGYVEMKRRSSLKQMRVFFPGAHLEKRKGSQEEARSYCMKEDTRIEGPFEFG
Procedure: as §1

[3] = test system: T3, Rep nickase domain of cabbage leaf curl virus
T3 sequence (residues 1-116, tag not shown): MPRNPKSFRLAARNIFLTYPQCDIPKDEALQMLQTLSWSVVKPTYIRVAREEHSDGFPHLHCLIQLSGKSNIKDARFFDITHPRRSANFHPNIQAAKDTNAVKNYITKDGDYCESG
Procedure: as §1

[4] = test system: T4, Rep nickase domain of chickpea chlorotic dwarf virus
T4 sequence (residues 1-124, tag not shown): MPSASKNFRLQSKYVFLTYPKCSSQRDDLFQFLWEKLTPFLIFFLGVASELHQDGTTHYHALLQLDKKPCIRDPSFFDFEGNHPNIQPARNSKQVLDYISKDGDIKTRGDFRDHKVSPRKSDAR
Procedure: as §1

[5] = test system: T5, Rep nickase domain of faba bean necrotic yellows virus
T5 sequence (residues 1-98, tag not shown): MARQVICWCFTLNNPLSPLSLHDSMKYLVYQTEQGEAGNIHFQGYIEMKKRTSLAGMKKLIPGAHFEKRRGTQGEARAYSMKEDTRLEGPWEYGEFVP
Procedure: as §1

[6] = test system: T6, Rep nickase domain of maize striate mosaic virus
T6 sequence (residues 1-117, tag not shown): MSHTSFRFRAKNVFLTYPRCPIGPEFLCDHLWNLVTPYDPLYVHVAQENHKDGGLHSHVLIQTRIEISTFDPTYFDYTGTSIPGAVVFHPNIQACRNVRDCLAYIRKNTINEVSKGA
Procedure: as §1

[7] = test system: T7, Rep nickase domain of porcine circovirus 2
T7 sequence (residues 2-116, tag not shown): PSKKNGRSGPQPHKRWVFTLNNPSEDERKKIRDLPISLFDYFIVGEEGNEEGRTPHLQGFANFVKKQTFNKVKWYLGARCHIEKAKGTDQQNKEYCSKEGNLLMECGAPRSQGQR
Procedure: as §1

[8] = test system: T8, Rep nickase domain of tomato yellow leaf curl virus
T8 sequence (residues 1-136, tag not shown): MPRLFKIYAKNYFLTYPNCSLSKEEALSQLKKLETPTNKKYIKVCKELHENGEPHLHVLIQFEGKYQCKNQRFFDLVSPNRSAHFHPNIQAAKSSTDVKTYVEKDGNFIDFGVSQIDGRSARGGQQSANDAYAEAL
Procedure: as §1

[9] = test system: T9, Rep nickase domain of wheat dwarf virus
T9 sequence (residues 1-137, tag not shown): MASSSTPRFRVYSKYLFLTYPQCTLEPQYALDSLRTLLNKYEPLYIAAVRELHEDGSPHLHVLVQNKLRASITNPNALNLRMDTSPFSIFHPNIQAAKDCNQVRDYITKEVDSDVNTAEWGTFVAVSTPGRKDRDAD
Procedure: as §1

Sequence | uncleaved DNA left (log2) [1] | uncleaved DNA left (log2) [2] | uncleaved DNA left (log2) [3] | uncleaved DNA left (log2) [4] | uncleaved DNA left (log2) [5] | uncleaved DNA left (log2) [6] | uncleaved DNA left (log2) [7] | uncleaved DNA left (log2) [8] | uncleaved DNA left (log2) [9]
TCGCGCG | 0.0238 | -0.0328 | -0.814 | 0.381 | -0.0106 | -0.836 | -0.0677 | -0.0895 | -0.131
TTCGCCC | -0.167 | -0.181 | -0.0436 | -0.386 | -0.197 | -0.634 | -0.237 | -0.257 | -0.221
AATGTGC | -0.0343 | -0.0945 | -0.699 | -0.72 | -0.0031 | -1.23 | -0.0258 | -0.012 | -0.0622
AGTTGAT | -0.0508 | 0.0307 | 0.198 | 0.915 | 0.134 | 1.43 | -3 | 0.0418 | 0.166
AGAGCAA | 0.145 | 0.0836 | 0.152 | 0.384 | 0.00697 | 0.193 | -0.71 | 0.0453 | 0.148
TCCTTTC | 0.0172 | -0.00353 | 0.0111 | -0.128 | -0.0317 | -0.928 | -0.163 | -0.173 | -0.0958
GCATCCG | 0.018 | -0.0265 | -0.677 | -0.421 | -0.0806 | -1 | 0.161 | -0.0347 | -0.078
CACTATG | 0.0659 | 0.121 | -0.391 | -0.432 | 0.103 | -0.917 | -0.0269 | 0.14 | 0.0465
TCTAAGT | 0.0651 | 0.0558 | 0.0974 | -0.281 | -0.0279 | -0.766 | -0.0539 | -0.00128 | -0.0102
GAGTTCC | -0.0394 | -0.00941 | 0.431 | 0.755 | -0.0513 | 1.44 | -1.76 | 0.0765 | 0.148
AAGTATG | 0.136 | 0.0933 | 0.137 | 0.22 | 0.0801 | 0.0804 | -0.18 | 0.0354 | 0.113
CGTCCAT | 0.0306 | -0.12 | 0.0906 | -0.033 | -0.0721 | -0.133 | -0.192 | 0.0608 | 0.119
GCCTTGG | 0.0509 | 0.0716 | -0.191 | 0.169 | 0.00872 | -0.519 | 0.0726 | 0.024 | -0.0148
CCCATTG | 0.123 | -0.0237 | -0.777 | -0.614 | -0.0119 | -1.31 | 0.0204 | -0.0422 | -0.0704
AACACGG | -0.0833 | -0.0646 | 0.356 | 1.24 | 0.00175 | 1.04 | 0.0557 | -0.0364 | -0.0342
ACCGAGA | 0.107 | 0.211 | 0.918 | 2.01 | 0.17 | 1.31 | 0.176 | 0.0216 | 0.241
GGTATTG | 0.0329 | 0.0597 | 0.0472 | 0.445 | 0.00449 | 0.182 | 0.0643 | 0.000677 | 0.0171
CTCTCCG | -0.0173 | -0.0752 | -0.829 | -0.0884 | -0.0813 | -0.827 | 0.157 | -0.00742 | -0.0965
ACAGGGC | -0.103 | -0.088 | -0.435 | -0.254 | -0.131 | -0.844 | -0.0533 | -0.0948 | -0.16
GGTGTTC | 0.0574 | -0.0187 | 0.408 | 0.974 | -0.0224 | 1.83 | 0.139 | -0.0289 | 0.00216
TGCATGT | 0.0266 | -0.0523 | -0.18 | -0.374 | -0.139 | -0.703 | -0.0515 | 0.0124 | -0.0642
TATTATA | -3.22 | -1.65 | -0.0951 | -2.83 | 0.0179 | -0.463 | -3.04 | 0.00339 | -0.0956
GACCATG | 0.172 | -0.0129 | -0.135 | 0.116 | 0.0322 | -0.428 | 0.151 | 0.175 | 0.0876
ACGATCT | -0.146 | -0.155 | -0.277 | -1.73 | -0.0682 | -0.515 | -0.303 | -0.159 | -0.238
CATATCG | 0.0601 | 0.109 | -0.644 | 0.355 | 0.0764 | -0.769 | 0.271 | 0.158 | 0.0616
CGAAGTG | -0.153 | -0.00896 | -0.353 | 0.104 | -0.0491 | -0.0705 | 0.00161 | -0.104 | -0.132
TCACCCG | -0.0198 | 0.00485 | -0.871 | -0.644 | -0.00662 | -1.17 | -0.302 | -0.0645 | -0.06
CGGCAAG | 0.0344 | 0.103 | -0.278 | -0.166 | -0.106 | -0.534 | 0.235 | 0.156 | 0.11
CATTCAA | -0.164 | -0.192 | -0.139 | -0.433 | -0.0882 | -0.96 | -0.164 | 0.0317 | -0.0213
TGCGTTG | -0.0609 | -0.148 | -0.0921 | 0.285 | 0.0105 | 1.01 | 0.0969 | -0.139 | -0.0256
